Measurements published in PubChem BioAssay AID1963576 (National Center for Advancing Translational Sciences (NCATS), 2024).
In all, about 46,000 compounds went through this assay and about 60 (0.1%) were called active. Not shown: some 3% with an inconclusive outcome. Calls come from the whole dose curve; as a rule, active = well fitted inhibition curve with a large enough effect; inconclusive = small, poorly fitted or top-dose-only effect; inactive = no such curve, though single readings can be large or run the other way. The list shows a part of the results.

Assay: Primary qHTS assay for Inhibitors of ovarian cancer metastasis using an organotypic tumor microenvironment (TME) model.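 For activity change, negative = inhibition: plate controls were DMSO wells for no effect and tomatine positive control wells for full effect.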 Note: nearly all actives have a fitted effect of over 65% in size.
Conditions: SKOV3ip1-GFP adhesion/invasion on 3D omental model, fluorescence; series mostly up to 45.8 µM; activity change, negative = inhibition: at the top concentration
Procedure, shortened: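 qHTS, 4-pt dose (0.36-46 umol/L); SKOV3ip1-GFP, 1,200 cells/well, no FBS; primary omental fibroblast/mesothelial co-culture 48 h pre-grown; 2 h RT + 16 h 37 C; PBS wash, 4% PFA; GFP count 488/509 nm.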

Activity change, negative = inhibition, inactive:
CCOC(=O)c1cnc2c(C)c(Cl)ccc2c1NCCc1ccccc1 0.314%
COc1ccc(CNC(=O)C(=O)Nc2ccc(OC)cc2OC)cc1 1.73%
CC(=O)c1ccc(N2CCN(C(=O)CCCCn3c(=O)[nH]c4ccccc4c3=O)CC2)cc1 -8.52%
Cc1cccc(N2CCN(C(=O)c3ccc4c(c3)N(Cc3cccc(Cl)c3)C(=O)c3ccccc3S4=O)CC2C)c1 (stereo unspecified) 2.82%
CCOc1cccc(NC(=O)CSc2ncc(-c3ccccc3)[nH]2)c1 -0.582%
CCCn1cc(S(=O)(=O)c2ccc(CC)cc2)c(=O)c2cc(F)c(N(CC)CC)cc21 8.39%
Cn1c(=O)c2c(-c3ccccc3)n3c(c2n(C)c1=O)C(c1ccco1)Nc1ccccc1-3 (stereo unspecified) 8.92%
COc1ccc(C(=O)Nc2nc3c(s2)CCCC3)cc1Cl -6.93%
COc1ccc(OC)c(CNC(=O)c2nn(C)c3c2CSc2ccccc2-3)c1 -4.25%
O=C(O)c1c(CNCc2cccc(F)c2)c2ccccc2n1Cc1ccccc1 8.05%
Cc1cc(-c2ccc(C)c(S(=O)(=O)NCC3CCN(Cc4ccc(F)cc4)CC3)c2)on1 4.1%
O=C(NCC(c1ccc2c(c1)OCO2)N1CCOCC1)C(=O)Nc1cccc(Cl)c1 (stereo unspecified) -28.4%
Cc1cccc(Cn2c(=O)n(CCC(=O)NCCc3ccc(Cl)cc3)c(=O)c3sccc32)c1 -2.87%
CCOc1ccc(NC(=O)c2ccc3c(c2)CCN3S(=O)(=O)c2ccc(Cl)cc2)cc1 11.5%
COc1ccc(-c2nc3c(c(SCC(=O)Nc4ccccc4F)n2)Cc2cc(C)ccc2O3)cc1 10.4%
Cc1ccc(NC(=O)CCCc2nnc3n(C)c(=O)c4sccc4n23)cc1F -5.59%
CC(=O)c1ccc(NC(=O)c2cc(S(=O)(=O)N3CCCCCC3)cn2C)cc1 2.3%
Cc1ccc(C)c(N2CCN(C(=O)C3CCCN(Cc4nc(-c5cccc(Cl)c5)oc4C)C3)CC2)c1 (stereo unspecified) 1.57%
CC1CCn2c(nc3cc(C(=O)NCc4ccccc4)ccc32)C1 (stereo unspecified) 7.54%
CCCNC(=O)c1ccc2c(c1)sc1nc(-c3ccc(C)cc3)cn12 11%
NC(=O)C1(N2CCCCC2)CCN(C(=O)Nc2ccc(F)cc2)CC1 0.0056%
Cc1ccc(-c2cn(-c3cccc(Cl)c3)c(S(=O)(=O)CC(=O)Nc3cccc(C)c3)n2)cc1 2.46%
COc1ccc(CCNc2nc(-c3ccc(OC)c(OC)c3)cc(C(F)(F)F)n2)cc1OC 32.6%
Cc1cc(C)cc(-n2ccn(CC(=O)Nc3cc(C)ccc3C)c(=O)c2=O)c1 -0.43%
CCn1cc(C(=O)NCCCN2CCCC(C)C2)c(=O)c2cc(S(=O)(=O)N(C)C3CCCCC3)ccc21 (stereo unspecified) 18.1%
O=C(NCc1ccccc1)C1CCN(S(=O)(=O)c2ccc3c(c2)CCCN3C(=O)C2CCC2)CC1 -7.49%
O=C(O)c1nc(=O)[nH]c(=O)[nH]1 -6.94% [at 23.2 µM]
CN(C)CCCN=c1c2ccccc2n(C)c2[nH]c(=O)n(C)c(=O)c12 48.4%
COc1cccc(OC)c1C(=O)Nc1cccc(-c2cn3ccsc3n2)c1 13.3%
CCOc1ccc(N2CC(c3nc4ccccc4n3Cc3ccccc3F)CC2=O)cc1 (stereo unspecified) 2.35%
COc1ccc(-c2nnc(SCC(=O)NC3CCCC3)nc2-c2ccc(OC)c(OC)c2)cc1OC 7.42%
Cc1ccc(NC(=O)NCc2cccn2Cc2ccccc2)c(C)c1 4.7%
CCCCCSc1ncnc2c1sc1nc(N3CCOCC3)c3c(c12)CCCC3 0.498%
CCOC(=O)c1scc(-c2ccc(C)cc2)c1S(=O)(=O)N1CCN(c2ccccc2F)CC1 -12.8%
O=C(CCC1N=C2c3ccccc3N=C(SCc3cccc(F)c3)N2C1=O)NCc1cccs1 (stereo unspecified) -4.63%
COC(=O)c1ccc(-c2nc3cc(NC(C)=O)ccc3o2)cc1 0.168%
CCOc1ccc(CCNC(=O)c2sc3ncccc3c2-n2cccc2)cc1OCC 1.43%
Cc1nc2nc(SCC(=O)NC3CCC(C)CC3)nn2c(C)c1Cc1ccccc1 (stereo unspecified) 5.89%
CCCCc1nn2c(=O)cc(COC(=O)C3CCCCC3)nc2s1 36.1%
CCC(C)NC(=O)Cn1c(=O)n(-c2ccc(C)c(C)c2)c(=O)c2c3c(sc21)CCCCC3 (stereo unspecified) -1.85%
COc1ccc(OC)c(NC(=O)c2cc(S(=O)(=O)NCCc3ccc(Cl)cc3)ccc2F)c1 8.45%
COc1ccc(-c2nc(CNC(=O)Nc3ccccc3)c(C)o2)cc1 -5.59%
COc1cccc(Cn2c(CNS(=O)(=O)c3ccc(C(C)(C)C)cc3)nc3cccnc32)c1 -5.64%
CCCN(c1ccc(C(C)C)cc1)S(=O)(=O)c1ccc2c(c1)oc(=O)n2CC(=O)OCC -16.1%
COc1ccc(-n2c(=O)c3ccccc3n(Cc3cccc(C)c3)c2=O)cc1 7.07%
COc1cc2c(-c3cc(Br)ccc3O)nc3c(c(C)nn3-c3ccccc3)c2cc1OC -0.178%
O=C(Nc1nnc(S(=O)(=O)Nc2ccccc2)s1)C1CCCCC1 -6.37%
CCOC(=O)Cn1c(=O)n(CC2CCCO2)c2nc(-c3ccc(C(C)C)cc3)nc(C(N)=O)c21 (stereo unspecified) -1.89%
CCOc1ccc(C(=O)NCC(c2ccco2)S(=O)(=O)c2cccs2)cc1 (stereo unspecified) -15.3%
COC(=O)c1ccc(C(=O)OC)c(NC(=O)c2cnn3c(C(F)F)cc(-c4ccccc4)nc23)c1 2.01%
Cc1nn(-c2ccc(N3CCCC3)nn2)c(C)c1CCC(=O)N1CCN(c2ccccc2)CC1 7.73%
CCN(Cc1ccccc1)C(=O)c1nn(-c2ccc(OC)cc2)c(=O)c2c1c1ccccc1n2C 1.59%
CCC1CN(C(=O)Nc2ccc(Br)cc2F)c2ccccc2S1 (stereo unspecified) 4.38%
CCOc1ccc(OCC)c(NC(=O)CCc2nc3cccnc3n2-c2ccccc2)c1 -14.9%
COc1ccccc1N1CCN(C(=O)CSc2n[nH]c(-c3ccccc3Cl)n2)CC1 -2.13%
O=C(NCC(c1ccc(Cl)cc1)N1CCCCC1)c1ccccc1F (stereo unspecified) -2.92%
COc1ccc(NC(=O)Cn2c(=O)n(-c3cccc(C(F)(F)F)c3)c(=O)c3sccc32)cc1 0.279%
CCCOc1ccc(CNC(=O)C2CCCN(c3nc4c(C)cc(C)cc4s3)C2)cc1 (stereo unspecified) 9.57%
O=C(NCc1ccc(F)cc1)c1cnc(N2CCCCC2)c2ccccc12 9.47%
CCN(CC)C(=O)C1CCN(c2nnc(C)c3c(C)n(-c4ccc(Cl)cc4)nc23)CC1 -3.02%
C#CCn1c(C2CC(=O)N(c3ccc(OCC)cc3)C2)nc2ccccc21 (stereo unspecified) -3.95%
COc1cc(OC)cc(C(=O)Nc2ccc3nc(Nc4cccc(C(F)(F)F)c4)cc(C)c3c2)c1 -17.3%
COc1ccc(C(=O)Nc2nnc(C)s2)cc1 -6.14%
CC(C)Cn1c(=O)c2ccccc2n2c(CCC(=O)N3CCN(c4ccccc4)CC3)nnc12 19.8%
COc1cc(OC)c(NC(=O)N2CCc3cc(OC)c(OC)cc3C2CC(=O)O)cc1Cl (stereo unspecified) 5.98%
COc1ccc(N2CCN(c3ncnc4onc(-c5ccc(F)cc5)c34)CC2)cc1 1.02%
Cc1ccc(CCNC(=O)c2ccc3c(c2)N(Cc2ccccc2)C(=O)c2ccccc2S3=O)cc1 (stereo unspecified) 6.01%
COc1ccc(NC(=O)Cn2c(=O)n(CCCC(=O)NCCc3ccc(C)cc3)c(=O)c3ccccc32)cc1Cl -9.54%
CC(=O)N1CCc2c(sc3c2c(=O)n(CCc2ccccc2)c(=O)n3CC(=O)Nc2ccc(C)c(F)c2)C1 -7.51%
COc1cccc2c1Oc1ncccc1N(c1ccc(C(=O)NCc3ccccc3Cl)s1)C2 9.61%
O=C(CSc1nnc(-c2ccc(Cl)cc2)o1)Nc1ccc(F)cc1 2.63%

outcome, inactive:
CCOc1cccc2sc(N3CCN(C(=O)C4CC4)CC3)nc12
COc1ccc(Cl)cc1CNCCSc1nnnn1C
Fc1cccc(Cl)c1Cn1c(-c2cccs2)nc2ccccc21
O=C(NCc1ccc(F)cc1)c1ccc2nc(N3CCCCC3)sc2c1
Cc1ccc(NC(=O)CCC(=O)N2Cc3ccccc3Oc3ncccc32)cc1F
O=C(CNC(=O)c1ccccc1)OCc1cc(=O)n2ccsc2n1
CCc1ccccc1NC(=O)CN1C(=O)c2ccccc2Sc2ncccc21
CCOC(=O)c1c(S(=O)(=O)N2CCCC(C(=O)NCc3cccc(OC)c3)C2)c(C)n(C)c1C (stereo unspecified)
Cc1cccc(CS(=O)(=O)Cc2ccc(C(=O)NCCc3ccccc3)o2)c1
Cc1ccc(N2CC(NC(=O)c3ccc(S(=O)(=O)N4CCCC4)cc3)CC2=O)cc1C (stereo unspecified)
Cc1ccc(Cl)cc1N1CCN(C(=O)CCNS(=O)(=O)c2ccc3c(c2)CCN3C(=O)C2CC2)CC1
Cc1cccc(NC(=O)C(=O)NCC(c2cccnc2)N2CCc3ccccc3C2)c1C (stereo unspecified)
CCOc1ccc(NC(=O)c2ccc(F)c(S(=O)(=O)N(CC)Cc3ccccc3)c2)cc1
COc1ccccc1N1CCN(C(=O)c2cc(S(=O)(=O)N3CCC(C)CC3)cn2C)CC1
CCOC(=O)c1ccc(N2C(=O)c3n[nH]c(C)c3C2c2ccc(OCC)cc2)cc1 (stereo unspecified)
Cc1ccccc1N(C)S(=O)(=O)c1nnc(NC(=O)C(C)C)s1
CCCSc1nnc2[nH]c(=O)cc(C)n12
Cc1ccccc1NC(=O)Cn1c(=O)n(Cc2ccccc2)c(=O)c2sc3ccccc3c21
Cc1ccccc1-c1nn2c(=O)cc(CN3CCN(S(=O)(=O)c4ccc(Cl)cc4)CC3)nc2s1
COc1ccc2c(C)c(CCC(=O)NCc3ccc(Cl)cc3)c(=O)oc2c1C
COC(=O)C(NC(=O)CCc1c(C)nc2c(c(C)nn2-c2ccccc2)c1C)C(C)C (stereo unspecified)
CCc1ccc(S(=O)(=O)Nc2ccc(-c3ccc(N4CCCC4)nn3)cc2)cc1
Cc1ccccc1NC(=O)[C@H](CSCc1ccccc1)N1Cc2ccccc2C1=O
CCCCOC(=O)CSc1nnc(-c2ccc(C)cc2)o1
Cc1cccc(NC(=O)c2ccc(F)c(S(=O)(=O)N3CCC4(CC3)OCCO4)c2)c1
